In PubChem BioAssay (NCATS):
Values joined by “and” are separate entries in the source; they are usually repeats but may differ in a detail not shown here. Equal values may be shown once. Inconclusive results, whose numbers are uncertain, are shown with a selection of clear calls. Where the call is inconclusive, the potency comes from a doubtful curve fit. Active and inactive are the calls of the source. Calls come from the whole dose curve; as a rule, active = well fitted cell-killing curve with a large enough effect; inconclusive = small, poorly fitted or top-dose-only effect, or effect the other way; inactive = no such curve, though single readings can be large or run the other way.

assay: Viability qHTS for spleen associated tyrosine kinase inhibitor (SYKi) naive MV4-11 cells (AID 1963823); details: MV4-11 AML viability, CellTiter-Glo luminescence, 72 h; viability (% of control): at 45 µM (top of the series); note: nearly all actives have a fitted effect of over 40% in size
In short: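 qHTS, SYK inhibitor-naive MV4-11; 500 cells/well; 72 hr compound exposure, 37 C; CellTiter-Glo added, 10 min RT; luminescence read.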
Potency is the fitted concentration of half-maximal effect; tags give direction and shape of the fitted curve.

Structure (SMILES) | Potency | viability (% of control)
Nc1nc(NC2CC2)cc(-c2cccc(Cl)c2Cl)n1 | active: 10.3 µM | –
C[C@]12CCC(=O)C=C1CC[C@@H]1[C@@H]2[C@@H](O)C[C@@]2(C)[C@H]1CC[C@]2(O)C(=O)CO | inactive | –
O=C(NO)c1cnc(NC2(c3ccccc3)CC2)nc1 | active: 5.25 µM | –
CC(=O)[C@]1(O)Cc2c(O)c3c(c(O)c2[C@@H](O[C@H]2C[C@H](N)[C@H](O)[C@H](C)O2)C1)C(=O)c1ccccc1C3=O | inconclusive: 0.105 µM [cytotoxic, full curve, poor fit] | –
CC(=O)N1CCN([C@H]2CCN(C(=O)N(C)[C@H](C)c3cc(C(F)(F)F)cc(C(F)(F)F)c3)[C@@H](c3ccc(F)cc3C)C2)CC1 | active: 14.6 µM | –
COC1=CC(=O)CC(C)C12Oc1cc(OC)cc(O)c1C2=O (stereo not given) | inactive | –
CC(C)n1nc(C#Cc2ccccc2)c2c(N)ncnc21 | inconclusive: 5.17 µM [cytotoxic, partial curve] | –
Cc1cc(C)nc(NS(=O)(=O)c2ccc(N)cc2)n1 | inconclusive: 11.9 µM [cytotoxic, partial curve, poor fit] | –
CC(C/C=C/C(C)(C)O)C1CCC(C)(O)C(O)C1 (stereo not given) | inactive | –
CS(=O)(=O)c1ccc([C@H](CC2CCCC2)C(=O)Nc2nccs2)cc1 | inconclusive: 10.3 µM [cytotoxic, partial curve] | –
C[C@@H]1C[C@@H]2O[C@H]2/C=C\C=C\C(=O)Cc2c(Cl)c(O)cc(O)c2C(=O)O1 | active: 0.0404 µM | –
CCOc1ccc(Cc2cc([C@@H]3O[C@H](CO)[C@@H](O)[C@H](O)[C@H]3O)ccc2Cl)cc1 | inactive | –
Cc1ccccc1CN1CCn2c1nc1c(c2=O)CN(Cc2ccccc2)CC1 | inconclusive: 10.3 µM [cytotoxic, partial curve, poor fit] | –
C[C@@H]1O[C@@H](O[C@H]2[C@H](OC(=O)[C@]34CCC(C)(C)C[C@H]3C3=CCC5[C@@]6(C)C[C@H](O)[C@H](O[C@@H]7O[C@H](CO)[C@@H](O)[C@H](O)[C@H]7O)[C@@](C)(CO)C6[C@H](O)C[C@@]5(C)[C@]3(C)C[C@H]4O)OC[C@H](O)[C@@H]2O)[C@H](O)[C@H](O)[C@H]1O[C@@H]1OC[C@@H](O)[C@H](O[C@H]2OC[C@](O)(CO)[C@H]2O)[C@H]1O (stereo not given in full) | – | inactive: 84.5% [at 9.25 µM]
C=CC1C(O[C@@H]2O[C@H](CO)[C@@H](O)[C@H](O)[C@H]2O)OC=C(C(=O)OC)C1CC(=O)O (stereo not given in full) | inactive | –
CN1CC[C@H](c2c(O)cc(O)c3c(=O)cc(-c4ccccc4Cl)oc23)[C@H](O)C1 | inconclusive: 0.944 µM [cytotoxic, full curve] | –
COc1cccc(CN(C(=O)CC(C)(C)C)C2CC(C(=O)N3CCNCC3)N(Cc3ccc4c(c3)OCO4)C2)c1 (stereo not given) | inconclusive: 16.4 µM [cytotoxic, partial curve] | –
COC1CC(=O)CCC(C)OC(=O)CC1O (stereo not given) | inconclusive: 14.6 µM [cytotoxic, single point] | –
CCOC(=O)Nc1cc(-c2ccc(C)c(NS(C)(=O)=O)c2)nn2c(C)nnc12 | active: 0.651 µM | –
CC[C@]1(O)C[C@H]2CN(CCC3C(=Nc4ccccc43)[C@@](C(=O)OC)(c3cc4c(cc3OC)N(C)[C@H]3[C@@](O)(C(N)=O)[C@H](O)[C@]5(CC)C=CCN6CC[C@]43[C@@H]65)C2)C1 (stereo not given in full) | inconclusive: 0.0461 µM [cytotoxic, full curve] | –

Structure (SMILES) | Potency | viability (% of control)
O=C(O)Cc1ccccc1Oc1ccc(Cl)cc1Cl | inactive | –
COc1ccc(-c2cnc3ccc(NCc4ccc(S(N)(=O)=O)cc4)nn23)cc1OC | active: 0.92 µM | –
CO[C@@H]1[C@]2(O)C(=O)N3/C=C\C(C)(C)c4[nH]c5ccccc5c4/C=C\3C(=O)N2[C@]23[C@H](CO)C(C)(C)N2c2ccccc2[C@]13O | inconclusive: 0.0028 µM [rising, full curve, poor fit] | –
CCC(=O)Nc1cccc(Oc2nc(Nc3ccc(N4CCN(C)CC4)cc3OC)ncc2Cl)c1 | active: 1.64 µM and active: 2.35 µM | –
CC(C(=O)O)c1ccc2c(c1)Cc1cccnc1O2 (stereo not given) | inactive | –
Cc1ccc(=O)n(-c2ccccc2)c1 | inactive | –
CC(C)=CCC/C(C)=C/COCC1OC(n2ccc(=O)[nH]c2=O)C(O)C1O (stereo not given) | inconclusive: 12.8 µM [cytotoxic, partial curve, poor fit] | –
Cc1onc(-c2c(Cl)cccc2Cl)c1C(=O)Cl | inactive | –
N[C@H]1Cc2ccccc2N(O)C1=O | inconclusive: 16.4 µM [cytotoxic, partial curve] | –
C[C@@]12CC3(S(=O)(=O)O)OC(O1)[C@]1(COC(=O)c4ccccc4)[C@H]3C[C@]21O[C@@H]1O[C@H](CO)[C@@H](O)[C@H](O)[C@H]1O | inactive | –
O=c1ccc2ccc(OCCCCN3CCN(c4cccc5sccc45)CC3)cc2[nH]1 | active: 10.3 µM | –
CC[C@@](C)(Nc1ccnc(-c2c[nH]c3ncccc23)n1)C(=O)NCC(F)(F)F | active: 14.6 µM | –
CN(Cc1ccc(C(=O)O)cc1)c1ccc(OCc2c(-c3c(Cl)cccc3Cl)noc2C2CC2)nc1C(F)(F)F | active: 20.6 µM | –
CCN1/C(=C/C(C)=O)Sc2ccc(OC(C)=O)cc21 | active: 7.31 µM | –
Nc1ncnc2c1c(-c1ccc(Oc3ccccc3)cc1)cn2C1CCCC1 | active: 0.366 µM | –
COc1cc2ncnc(Nc3cccc(I)c3)c2cc1OC | inconclusive: 2.31 µM [cytotoxic, full curve] and inconclusive: 8.2 µM [cytotoxic, partial curve] | –
O=C(c1ccccc1)C(O)c1ccccc1 (stereo not given) | inactive | –
O=c1[nH]ccc2c(S(=O)(=O)N3CCCNCC3)cccc12 | inconclusive: 25.9 µM [cytotoxic, partial curve, poor fit] | –
C/C=C1\[C@H](O[C@@H]2O[C@H](CO)[C@@H](O)[C@H](O)[C@H]2O)OC=C(C(=O)OC)[C@H]1CC(=O)OC[C@H]1O[C@@H](OCCc2ccc(O)cc2)[C@H](O)[C@@H](O)[C@@H]1O | inconclusive: 9.68 µM [cytotoxic, single point] | –
CC1(CCC(=O)O)C(=O)C=CC23CC4CC(OC4(C)C2O)C13 (stereo not given) | inactive | –
